For the test, the target named is GTPase KRas (Homo sapiens) (UniProt P01116). The test can be described thus: Covalent labelling of cysteine mutants by fragments, read by mass spectrometry (AID 2202238). Details: protein at 5 µM with 500 µM competing thiol for 1.5 h. To be noted: KRAS G12D cysteine mutants, disulfide tethering, MALDI-TOF labeling, stronger effect = higher value, fragment at 500 µM.
[1] abbreviates: measured here: G75C mutant labeling.
[2] abbreviates: measured here: H94C mutant labeling.
Where [3] appears, read: measured here: I36C mutant labeling.
[4] abbreviates: measured here: L120C mutant labeling.
Where [5] appears, read: measured here: M67C mutant labeling.
Setting [6] is: measured here: M72C mutant labeling.
Where [7] appears, read: measured here: N86C mutant labeling.
The mark [8] stands for this setting: measured here: P121C mutant labeling.
Setting [9] is: measured here: S122C mutant labeling.
The mark [10] stands for this setting: measured here: S136C mutant labeling.
Where [11] appears, read: measured here: G60C mutant labeling.
[12] abbreviates: measured here: N26C mutant labeling.

The other results are listed elsewhere or left out. The main result of the screen is listed elsewhere. These columns were measured beside it and carry no call.

UniProt P01116, sequence (P01116 whole entry, looked up, the tested form may be a part): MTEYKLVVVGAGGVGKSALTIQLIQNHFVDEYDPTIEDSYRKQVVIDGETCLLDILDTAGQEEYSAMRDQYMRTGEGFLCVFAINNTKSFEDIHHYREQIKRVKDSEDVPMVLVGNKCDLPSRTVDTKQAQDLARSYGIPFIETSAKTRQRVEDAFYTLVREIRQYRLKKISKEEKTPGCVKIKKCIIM

With `CN(C)Cc1nc2ccc(NC(=O)CCS)cc2[nH]1`, the percent labeling worked out at 14.3% under setting [1]; 29.1% under setting [2]; 39.6% under setting [3]; 32% under setting [4]; 38% under setting [5]; 31% under setting [6]. This compound gave a percent labeling under setting [7] of 37.4%, a percent labeling under setting [8] of 27.1%, a percent labeling under setting [9] of 29.4% and a percent labeling under setting [10] of 48.6%.
Consider `Cc1nc(C(F)(F)F)ccc1C(=O)NCCS`, for which the percent labeling is, setting by setting: under setting [11], 36.8%; under setting [1], 15%; under setting [2], 31.4%; under setting [3], 24.6%; under setting [4], 35%; under setting [5], 28.4%. Further, the percent labeling by setting is: under setting [6], 24.8%; under setting [12], 37.7%; under setting [7], 24.2%; under setting [8], 36.5%; under setting [9], 30.9%; under setting [10], 46.9%.
In the case of `O=C(NCCS)c1ccn(C2CCOCC2)n1`, the percent labeling under setting [11] turned out to be 25.7%; the percent labeling under setting [1] was 18.3%; the percent labeling under setting [2] came to 39.3%; the percent labeling under setting [3] was determined as 26.5%; the percent labeling under setting [4] amounted to 33.2%; the percent labeling under setting [5] turned out to be 37.3%. For the same compound, the percent labeling amounted to 39% under setting [6]; 43.2% under setting [12]; 24.2% under setting [7]; 30% under setting [8]; 34.7% under setting [9]; 53.2% under setting [10].
`O=C(NCCS)c1cccc(-n2[nH]c(=O)ccc2=O)c1`: the percent labeling by setting is: under setting [11], 16.8%; under setting [1], 6.2%; under setting [2], 23.7%; under setting [3], 13.1%; under setting [4], 36.4%; under setting [5], 20.9%. Moreover, the percent labeling is, setting by setting: under setting [6], 10.6%; under setting [12], 29.1%; under setting [7], 29.5%; under setting [8], 26.6%; under setting [9], 34%; under setting [10], 25%.
Regarding `Cc1cccc2c(=O)n(CCC(=O)NCCS)cnc12`, the percent labeling runs as follows: under setting [11], 36.9%; under setting [1], 18.6%; under setting [2], 31.1%; under setting [3], 32.8%; under setting [4], 34.9%; under setting [5], 42.5%. In addition, the percent labeling turned out to be 39.1% under setting [6]; 38.6% under setting [12]; 23.4% under setting [7]; 37% under setting [8]; 29.7% under setting [9]; 46.5% under setting [10].
Regarding `O=C(CCN1C(=O)COc2ccccc21)NCCS`, the percent labeling was determined as 31.8% under setting [11]; 7.9% under setting [1]; 25.5% under setting [2]; 23.5% under setting [3]; 29.7% under setting [4]; 31.3% under setting [5]. The percent labeling reads like this: under setting [6], 14.2%; under setting [12], 28.7%; under setting [7], 19.3%; under setting [8], 32.2%; under setting [9], 23.6%; under setting [10], 42.6%.
As for `CC(C)(C)OC(=O)N1CCC2(CCN(C(=O)CCS)CC2)CC1`, the percent labeling under setting [1] worked out at 19.1%; the percent labeling under setting [2] is 34.1%; the percent labeling under setting [3] was determined as 30.8%; the percent labeling under setting [4] was 28.1%; the percent labeling under setting [5] amounted to 37.8%; the percent labeling under setting [6] worked out at 33.5%. Also, the percent labeling was 25.4% under setting [7], 25.5% under setting [8], 25.4% under setting [9] and 51.8% under setting [10].
`CN(C)C(C(=O)NCCS)c1ccccc1` (configuration not stated): the percent labeling came out at 50.2% under setting [11]; 19.1% under setting [1]; 40.1% under setting [2]; 28.7% under setting [3]; 57.8% under setting [4]; 39.9% under setting [5]. Moreover, the percent labeling worked out at 26% under setting [6]; 40.1% under setting [12]; 31.4% under setting [7]; 34.8% under setting [8]; 32.8% under setting [9]; 61.5% under setting [10].
Turning to `O=C(NCCS)c1cc(C2CCOCC2)[nH]n1`, the percent labeling reads like this: under setting [11], 32.5%; under setting [1], 20.9%; under setting [2], 36.9%; under setting [3], 27.8%; under setting [4], 47.5%; under setting [5], 34.1%. The percent labeling turned out to be 46.2% under setting [6]; 45.2% under setting [12]; 31.2% under setting [7]; 30.9% under setting [8]; 35.5% under setting [9]; 50.1% under setting [10].
For `CCOC(=O)c1[nH]ncc1C1CCCN(C(=O)CCS)C1` (configuration not stated), the percent labeling is, setting by setting: under setting [1], 16.6%; under setting [2], 45.8%; under setting [3], 40.5%; under setting [4], 40%; under setting [5], 46.5%; under setting [6], 34.6%. In addition, the percent labeling by setting is: under setting [7], 28.1%; under setting [8], 30.4%; under setting [9], 30%; under setting [10], 66.4%.
For the compound `O=C(CCS)Nc1ccccc1N1CC2CCC1C2` (configuration not stated), the percent labeling was 24.6% under setting [1]; 36.7% under setting [2]; 27.9% under setting [3]; 33% under setting [4]; 35.1% under setting [5]; 38% under setting [6]. Further, the percent labeling is, setting by setting: under setting [7], 17.8%; under setting [8], 32.3%; under setting [9], 22.3%; under setting [10], 45.7%.
Turning to `CC(c1cc(Cl)ccc1Cl)n1nccc1NC(=O)CCS` (configuration not stated), the percent labeling runs as follows: under setting [1], 21.8%; under setting [2], 15.8%; under setting [3], 17.9%; under setting [4], 11%; under setting [5], 17%; under setting [6], 32.4%. Besides, the percent labeling by setting is: under setting [7], 12.1%; under setting [8], 14.1%; under setting [9], 9.5%; under setting [10], 30.4%.
Regarding `CNC(=O)N1CCC(NC(=O)CCS)CC1`, the percent labeling is, setting by setting: under setting [1], 9.8%; under setting [2], 25%; under setting [3], 34%; under setting [4], 20.3%; under setting [5], 28.6%; under setting [6], 10.5%. Moreover, the percent labeling amounted to 20.7% under setting [7], 33.2% under setting [8], 27.9% under setting [9] and 43.1% under setting [10].
For the compound `O=C(CCS)NC1CCN(C2CCOC2=O)CC1` (configuration not stated), the percent labeling is 6.6% under setting [1]; 32.4% under setting [2]; 34% under setting [3]; 28.6% under setting [4]; 37.1% under setting [5]; 12.2% under setting [6]. Besides, the percent labeling under setting [7] came to 17.6%, the percent labeling under setting [8] was found to be 31.9%, the percent labeling under setting [9] amounted to 35.5% and the percent labeling under setting [10] is 46.5%.
`O=C(CCS)NC1CCN(Cc2ccc(Cl)cc2)CC1`: the percent labeling reads like this: under setting [1], 17%; under setting [2], 43.5%; under setting [3], 60.6%; under setting [4], 0%; under setting [5], 53.3%; under setting [6], 28.1%. Further, the percent labeling reads like this: under setting [7], 33.3%; under setting [8], 34.2%; under setting [9], 28.9%; under setting [10], 54.6%.
On to `O=C(NCCS)c1nc2ccccn2c1Br`, for which the percent labeling was 32.2% under setting [11]; 23.9% under setting [1]; 31.8% under setting [2]; 22.7% under setting [3]; 36.7% under setting [4]; 28.4% under setting [5]. The percent labeling by setting is: under setting [6], 58.2%; under setting [12], 39.9%; under setting [7], 22.3%; under setting [8], 28.9%; under setting [9], 21.1%; under setting [10], 39.9%.
Turning to `O=C(CCS)NCCCN(C1CC1)S(=O)(=O)c1cccc(F)c1`, the percent labeling under setting [1] was determined as 14.5%; the percent labeling under setting [2] stood at 29.8%; the percent labeling under setting [3] worked out at 29%; the percent labeling under setting [4] was determined as 28.2%; the percent labeling under setting [5] stood at 33.3%; the percent labeling under setting [6] turned out to be 33.8%. The percent labeling was 21.3% under setting [7], 25.4% under setting [8], 27.3% under setting [9] and 53.4% under setting [10].
With `O=C(CCS)NCc1cc(Br)cc(Cl)n1`, the percent labeling by setting is: under setting [1], 13.9%; under setting [2], 37.4%; under setting [3], 40.2%; under setting [4], 30.5%; under setting [5], 47.8%; under setting [6], 42.5%. In addition, the percent labeling reads like this: under setting [7], 30%; under setting [8], 31.6%; under setting [9], 30.8%; under setting [10], 50.4%.
On to `Cc1ccn(-c2cccc(NC(=O)CCS)c2)n1`, for which the percent labeling under setting [1] came out at 13.9%; the percent labeling under setting [2] was 25.3%; the percent labeling under setting [3] was found to be 17.6%; the percent labeling under setting [4] was 20.9%; the percent labeling under setting [5] was 12.9%; the percent labeling under setting [6] turned out to be 33.8%. Also, the percent labeling reads like this: under setting [7], 23.1%; under setting [8], 16.5%; under setting [9], 20.4%; under setting [10], 41.2%.
With `CC(C)(C)OC(=O)N1CCC(O)(C2CCN(C(=O)CCS)CC2)CC1`, the percent labeling worked out at 14.1% under setting [1]; 24.3% under setting [2]; 24.4% under setting [3]; 26.2% under setting [4]; 30.2% under setting [5]; 19.1% under setting [6]. Further, the percent labeling is, setting by setting: under setting [7], 24.8%; under setting [8], 28.2%; under setting [9], 26.4%; under setting [10], 45.9%.
As to `O=C(CCc1cnc2ccccc2c1)NCCS`, the percent labeling reads like this: under setting [11], 44.1%; under setting [1], 25.4%; under setting [2], 33.7%; under setting [3], 47%; under setting [4], 34.1%; under setting [5], 41.4%. For the same compound, the percent labeling reads like this: under setting [6], 31.9%; under setting [12], 38.5%; under setting [7], 25.5%; under setting [8], 32.4%; under setting [9], 29.1%; under setting [10], 44.8%.
`COc1ccc(OC)c(-c2cc(C(=O)NCCS)no2)c1`: the percent labeling came out at 26.2% under setting [11]; 19.1% under setting [1]; 14.5% under setting [2]; 12.1% under setting [3]; 13.9% under setting [4]; 11% under setting [5]. Also, the percent labeling came to 57.7% under setting [6]; 32.9% under setting [12]; 12.4% under setting [7]; 14.1% under setting [8]; 9.8% under setting [9]; 13.3% under setting [10].
The compound `Cc1c(-c2ccccc2)oc2c(C(=O)NCCS)cccc2c1=O` displayed a percent labeling under setting [11] of 23.3%; a percent labeling under setting [1] of 3.5%; a percent labeling under setting [2] of 13.5%; a percent labeling under setting [3] of 8%; a percent labeling under setting [4] of 3.5%; a percent labeling under setting [5] of 9.2%. Moreover, the percent labeling by setting is: under setting [6], 20.9%; under setting [12], 27.7%; under setting [7], 3.6%; under setting [8], 3.3%; under setting [9], 3.1%; under setting [10], 16.3%.

The record behind these values is PubChem BioAssay AID2202238 (Ras Initiative Chemistry Research Team, Frederick National …, 2025).
